These results are taken from PubChem BioAssay AID1259407 (Chemical Carcinogenesis Research Information System (CCRIS), 2018).

The data set deals with CCRIS mutagenicity, Ames/micronucleus/aberration tests. The experiment in a line: CCRIS mutagenicity studies.
Setting [1] is: Test System: AMES SALMONELLA TYPHIMURIUM, Strain/Indicator: TA100, Metabolic Activation: NONE, Method: STANDARD PLATE.
Setting [2] is: End Point: IN VITRO CHROMOSOMAL ABERRATIONS, Test System: CHL CELLS, Metabolic Activation: NONE.
Where [3] appears, read: Test System: AMES SALMONELLA TYPHIMURIUM, Strain/Indicator: TA1535, Metabolic Activation: NONE, Method: PREINCUBATION
The mark [4] stands for this setting: Test System: AMES SALMONELLA TYPHIMURIUM, Strain/Indicator: TA98, Metabolic Activation: NONE, Method: STANDARD PLATE.
The mark [5] stands for this setting: Test System: AMES SALMONELLA TYPHIMURIUM, Strain/Indicator: TA98, Metabolic Activation: RAT, LIVER, S-9, AROCLOR 1254, Method: STANDARD PLATE.

Entries after “also recorded” stand apart in the source; their conditions may differ. Some entries of the source have several records that differ or are many. The other results are left out here. No rule for the calls is given here. There may be further records. Values that stand side by side do not match, cause unknown; some may be repeats, others may stem from another dose, organism or construct than stated. A tag in brackets gives the origin of a value. A, B and so on number the origins entry by entry. Additions like (4×) say how often a value occurs here.

As for `O=C(O)/C(Cl)=C(\C(=O)O)C(Cl)Cl`, the mutagenic call under setting [1] was “active; positive [study A] and inactive; negative [study B]”.
On to `COc1nc(C(Cl)(Cl)Cl)c(Cl)c(OC)c1Cl`, for which, where the note is “Test System: Mouse lymphoma, Strain/Indicator: L5178Y (tk+/tk-), Metabolic Activation: None, Method: Suspension/plate”, the mutagenic call was “active; positive and inactive; negative”.
Take `CC(=O)CN(C)N=O`: the mutagenic call was “inactive; negative [study A] and active; positive [study B]” (Test System: AMES SALMONELLA TYPHIMURIUM, Strain/Indicator: TA100, Metabolic Activation: HAMSTER, LIVER, S-9, Method: PREINCUBATION); “inactive; negative [study A] and active; positive [study B]” (Test System: AMES SALMONELLA TYPHIMURIUM, Strain/Indicator: TA100, Metabolic Activation: RAT, LIVER, S-9, Method: PREINCUBATION).
Regarding `CNN`, the mutagenic call under setting [2] is “inactive; negative; authors report results as equivocal; also recorded: active; positive (structural changes) (2×)”; the mutagenic call (Test System: AMES SALMONELLA TYPHIMURIUM, Strain/Indicator: TA100, Metabolic Activation: NONE, Method: PREINCUBATION) was “inactive; negative and active; positive”; the mutagenic call under setting [3] was “inactive; negative [study A] and active; positive [study A] and inactive; negative [study B]”; the mutagenic call (Test System: E.COLI, Strain/Indicator: WP2UVRA, Metabolic Activation: NONE, Method: PREINCUBATION) is “inactive; negative and active; positive”.
In the case of `C=CC(=O)OCC`, where the note is “Test System: MOUSE LYMPHOMA, Strain/Indicator: L5178Y (TK+/TK-), Metabolic Activation: NONE, Method: SUSPENSION/PLATE”, the mutagenic call was “active; positive [study A]; also recorded: active; positive [study B]; also recorded: active; positive. reevaluation of results: positive [study C]”.
Regarding `CCN(CC)c1ccc(N)cc1`, the mutagenic call (End Point: IN VITRO CHROMOSOMAL ABERRATIONS, Test System: CHINESE HAMSTER LUNG CELLS (CHL), Metabolic Activation: NONE) is “active; positive at highest dose (structural changes); also recorded: inactive; negative; also recorded: active; positive (structural changes)”.
Consider `N#Cc1cc([N+](=O)[O-])ccc1N`, for which the mutagenic call under setting [2] was “active; positive (structural changes) and inactive; negative”.
For the compound `O=[N+]([O-])c1ccc(Nc2ccccc2O)c([N+](=O)[O-])c1`, the mutagenic call under setting [3] is “active; positive [0.3 to 33 µg/plate] and inactive; negative [1 to 66 µg/plate]”.
On to `Nc1cccc(N)n1`, for which, for the setting “Test System: AMES SALMONELLA TYPHIMURIUM, Strain/Indicator: TA1537, Metabolic Activation: NONE, Method: PREINCUBATION”, the mutagenic call is “active; positive and inactive; negative”.
For the compound `[O-][Cl+]O`, the mutagenic call (End Point: IN VIVO MICRONUCLEUS, Test System: BONE MARROW POLYCHROMATIC ERYTHROCYTES, Species: MOUSE, Strain/Sex: DDY/MALE, Route: IP) is “active; positive and inactive; negative”.
With `BrCCCCBr`, the mutagenic call is “active; positive (structural changes) (2×); also recorded: active; positive (structural and ploidy changes)” under setting [2]; “inactive; negative and active; positive” (Test System: AMES SALMONELLA TYPHIMURIUM, Strain/Indicator: TA100, Metabolic Activation: RAT LIVER S-9, PHENOBARBITAL AND BETA-NAPHTHOFLAVONE, Method: PREINCUBATION).
As for `N#Cc1ccc(/C=C/c2ccc([N+](=O)[O-])cc2)cc1`, the mutagenic call reads like this: under setting [4], “active; positive [study A] and inactive; negative [study B]”; under setting [1], “active; positive [study A] and inactive; negative [study B]”.
As to `COC(=O)Nc1nc2ccccc2[nH]1`, the mutagenic call reads like this: (End Point: IN VITRO CHROMOSOMAL ABERRATIONS, Test System: HUMAN PERIPHERAL LYMPHOCYTES, Metabolic Activation: NONE) “inactive; negative [study A]; also recorded: inactive; negative; weakly positive at 25 um [study B]”; under setting [5], “active; positive [study A] and inactive; negative [study A] and inactive; negative [study B]”.
Turning to `Nc1ccccc1-c1ccccc1`, the mutagenic call runs as follows: under setting [5], “inactive; negative [study A] and active; positive [study B]”; (Test System: AMES SALMONELLA TYPHIMURIUM, Strain/Indicator: TA100, Metabolic Activation: RAT, LIVER, S-9, AROCLOR 1254, Method: STANDARD PLATE) “inactive; negative [study A] and active; positive [study B] and active; positive [study C]”.
For `[O-][Br+2]([O-])O`, where the note is “Test System: AMES SALMONELLA TYPHIMURIUM, Strain/Indicator: TA97, Metabolic Activation: NONE, Method: PREINCUBATION”, the mutagenic call is “inactive; negative [study A] and active; positive [study B]”.
`C1CC[C@H]2O[C@H]2C1`: the mutagenic call under setting [4] was “inactive; negative [study A] and active; positive [study B]”.
`CC(C)(OO)c1ccccc1`: under “Test System: AMES SALMONELLA TYPHIMURIUM, Strain/Indicator: TA102, Metabolic Activation: NONE, Method: STANDARD PLATE”, the mutagenic call is “active; positive [study A] and inactive; negative [study B]”.
With `CCC1CO1` (stereo unspecified), the mutagenic call (End Point: IN VITRO CHROMOSOMAL ABERRATIONS, Test System: CHO CELLS, Metabolic Activation: RAT, LIVER, S-9, AROCLOR 1254) is “inactive; negative (2×) and active; positive”.
For the compound `CC1(C)[C@H](C(=O)O[C@H](C#N)c2cccc(Oc3ccccc3)c2)[C@@H]1C=C(Cl)Cl`, the mutagenic call (End Point: In vitro chromosomal aberrations, Test System: Human peripheral blood lymphocytes) was “active; positive (structural changes); also recorded: active; positive (structural changes). commercial product containing 10% alpha-cypermet”.
Regarding `CCSCCSP(=S)(OC)OC`, under “Test System: AMES SALMONELLA TYPHIMURIUM, Strain/Indicator: TA1535, Metabolic Activation: NONE, Method: STANDARD PLATE”, the mutagenic call was “inactive; negative [study A] and active; positive [study B]”.
On to `CCN(CC)C(=O)/C(Cl)=C(\C)OP(=O)(OC)OC`, for which, under setting [1], the mutagenic call was “inactive; negative and active; positive”.
As for `c1ccc(C2CO2)cc1` (stereo unspecified), the mutagenic call reads like this: under setting [2], “active; positive (structural changes); authors report equivocal results for ploidy chang; also recorded: active; positive (structural changes)”; (Test System: AMES SALMONELLA TYPHIMURIUM, Strain/Indicator: TA98, Metabolic Activation: NONE, Method: PREINCUBATION) “active; positive [study A] and inactive; negative [study B]”.
